In the supplement of paper PMC3334620:
In all, about 33,000 sequences were measured (“E-score (-0.5 to 0.5)”: median about -0.01, highest 2% from about 0.26 on). This is one part of the list.

Target: Ste12 (UniProt P13574)
Assay: PBM E-score (8-mer binding enrichment) (E-score (-0.5 to 0.5)); higher = stronger / more preferred TF binding; most listed sequences are background and not binding sites
Conditions: protein concentration: 200 nM; construct: GST-DNA-binding domain
Experimental: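 Universal 'all 10-mer' protein binding microarrays (Agilent AMADID 015681) probed with GST-tagged S. cerevisiae TFs (full-length or DBD) made by in vitro transcription/translation (PURExpress), about 100-200 nM. Bound TF was detected with fluorescent anti-GST. Each ungapped 8-mer (which stands for itself and its reverse complement) is scored by the PBM enrichment score (E-score), a modified Wilcoxon-Mann-Whitney statistic from -0.5 to +0.5, computed with the Universal PBM Analysis Suite. Scale: above 0.35 generally sequence-specific binding.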

| Sequence | PBM E-score |
| --- | --- |
| ACTCTCGC | -0.0613 |
| AGGAACGA | -0.0861 |
| CCGACTGC | -0.00603 |
| ACTCAGCT | 0.0516 |
| ATCTGCAA | -0.0772 |
| ACTGCGGA | 0.0413 |
| ACCGCGCT | -0.16 |
| GATCGGGC | -0.0011 |
| CCACGAGC | -0.156 |
| ACTTTTAA | 0.164 |
| AGTTTCCC | 0.0318 |
| CGCGAAGA | 0.141 |
| AAAGCCAA | 0.065 |
| CCTGTAAA | -0.226 |
| CCCTGAAA | 0.181 |
| AGATATGG | 0.0956 |
| CCGCTTCA | 0.0476 |
| AGAGAGAT | 0.0429 |
| GGCCCGAA | 0.0586 |
| ATGGGTTA | 0.0717 |
| AGACCCAC | 0.0707 |
| ATTTTAGA | 0.179 |
| GGTCCAAA | -0.153 |
| GCAGACAA | -0.0114 |
| AGCACGCC | -0.00482 |

| Sequence | PBM E-score |
| --- | --- |
| AGGAGGTA | -0.0657 |
| CAGACTTC | -0.0901 |
| ACTGAAGG | -0.0931 |
| AAACCTGA | 0.207 |
| GCGCTTGA | 0.0828 |
| CTAGGTGA | -0.246 |
| ACGCACGC | 0.00812 |
| CGTAGCCA | -0.125 |
| CAGTGCAG | -0.189 |
| AGATCGTA | -0.28 |
| ATGGTAAT | 0.039 |
| AACCATGG | -0.0682 |
| AGCCACGG | -0.208 |
| CGTACCAG | -0.125 |
| AGCCGTCA | -0.106 |
| TTGGACAA | 0.0947 |
| ATGTACAT | -0.125 |
| CCAGAGGG | -0.183 |
| ATCTTTGG | -0.00405 |
| GATCCTAA | -0.0939 |
| CTCAACAA | 0.0404 |
| ATTCGAGG | -0.0102 |
| CTTGGTAA | -0.108 |
| CGGTTGGC | 0.0188 |
| GGCAGAAC | 0.11 |

| Sequence | PBM E-score |
| --- | --- |
| GAATCGTC | -0.0848 |
| AATATAAA | 0.306 |
| AGTCTAGC | -0.223 |
| GACATCCC | 0.109 |
| ATATTACA | 0.2 |
| CCACATAA | -0.0066 |
| CGGCGCAA | 0.0162 |
| TAATATTA | 0.111 |
| CCTCTCGC | -0.00841 |
| ATCGCAAT | 0.179 |
| CTCACTTC | -0.229 |
| GATTTGGC | -0.0157 |
| ATGCCCGA | -0.0725 |
| AGCATAGA | -0.0405 |
| ACGTCACT | -0.0232 |
| CACAAGCC | -0.2 |
| CGACGATC | 0.0524 |
| CCCATTTA | 0.166 |
| CGCGACAA | 0.174 |
| AGCCACAT | -0.0125 |
| AACAGTGT | 0.126 |
| GAAGTCTC | -0.224 |
| CGGAAACA | 0.209 |
| GATACACC | 0.187 |
| AGGCCGGA | -0.104 |

| Sequence | PBM E-score |
| --- | --- |
| ACGAACGT | -0.0934 |
| CATAGACG | 0.09 |
| ATGATCAT | 0.234 |
| CGAGGGCC | 0.0219 |
| AAAGGAGG | -0.212 |
| CAATAATC | 0.0713 |
| ATGGGGTC | -0.0801 |
| TGAGGTAA | 0.128 |
| CGTAAACC | -0.0542 |
| GCTTAAGC | -0.174 |
| CTCGGATA | 0.0482 |
| CGTCAAGA | 0.0127 |
| TAGACCTA | -0.185 |
| CTTCTTTC | 0.0898 |
| GCGCGAGA | -0.0415 |
| GCCCCGGC | 0.032 |
| CGGTCCAC | -0.195 |
| AAGAGCCG | -0.121 |
| GGGCACGA | -0.0444 |
| GACTTATC | 0.00177 |
| CACTTGAC | -0.0688 |
| AGCTACTA | -0.0121 |
| ACCAGTCC | -0.168 |
| ACTTTTTG | 0.237 |
| GTACTACA | 0.105 |

| Sequence | PBM E-score |
| --- | --- |
| TAGAATGA | 0.0492 |
| GCCGCGAC | -0.025 |
| AATCATCG | 0.00961 |
| GGGCGACA | -0.0634 |
| ATCCCGAG | -0.101 |
| ATTAGGCC | -0.0539 |
| GAGGAATA | 0.161 |
| CATGTTAA | 0.162 |
| CTAGAGCA | -0.16 |
| ATCTACTC | 0.141 |
| GTACAGGA | 0.00908 |
| ACTGTAAT | 0.128 |
| ACGCCGTG | 0.06 |
| ATTCTCAC | 0.139 |
| ATCGGAGG | -0.172 |
| ACATGCGG | -0.00547 |
| AGTGGAGG | -0.0716 |
| GCTATGCA | -0.0367 |
| CGGTTGAA | 0.0517 |
| AGAGACGC | -0.107 |
| CTGTGCTA | -0.0469 |
| AAACTCAC | 0.146 |
| ACGACTGC | -0.173 |
| GAGCCACA | -0.0781 |
| ATAGATTG | 0.172 |

| Sequence | PBM E-score |
| --- | --- |
| CGCCAAAG | -0.108 |
| ATGTGACA | 0.24 |
| CGTAGGTA | -0.181 |
| CCCAATCA | -0.0149 |
| GCCTTGTA | -0.134 |
| CTATCGCA | -0.0857 |
| CGCAGAAG | -0.0903 |
| ATACCGGA | -0.15 |
| AGGCCGGG | -0.174 |
| AGATCTCC | 0.0438 |
| GGGTCGAA | 0.0113 |
| CAAGTGCG | -0.143 |
| CGAATACC | 0.121 |
| AGATCCAA | -0.0504 |
| TCGCGCGA | 0.0251 |
| AGAACTAG | -0.111 |
| ATTGATCC | 0.00951 |
| TAACGTTA | 0.119 |
| GAACATGA | 0.0383 |
| CCGCTTAC | -0.134 |
| CGAAATTA | 0.206 |
| GTGGCAGA | -0.108 |
| ATGTGCCG | -0.222 |
| ACAAGAAG | 0.0468 |
| ATAAGAGG | 0.0318 |

| Sequence | PBM E-score |
| --- | --- |
| CATCCCGG | -0.11 |
| ACCTGTAG | -0.136 |
| ATCGATTG | 0.119 |
| AACGCCAG | 0.0937 |
| GCAAGGGC | -0.188 |
| CCGGCACC | 0.0568 |
| CTTATGCC | 0.128 |
| CACGCGCG | -0.0391 |
| TTGCCAAA | 0.111 |
| AACCCTGA | 0.305 |
| TACAAACA | 0.21 |
| CATGCCTA | -0.0489 |
| CCCTCGCC | 0.0165 |
| AGGCCGTC | -0.114 |
| CGCCCAGC | 0.0194 |
| GAGTACCC | -0.155 |
| AGCTGGGA | -0.0199 |
| CACAGCCA | -0.0226 |
| GCGTAGGA | -0.137 |
| CTGAACAC | 0.132 |
| AGCCATCC | -0.0935 |
| AGGTATAG | 0.146 |
